This note sets out measurements from PubChem BioAssay AID1745853 (National Center for Advancing Translational Sciences (NCATS), 2022).

Structures are written as SMILES. Values joined by “and” are separate entries in the source; they are usually repeats but may differ in a detail not shown here. Equal entries are not always repeated. This is one part of the list. These are further read-outs of the screen, such as a control signal, another cell line or another target. No call is given for them.

Assay in all cases: Primary Screen for Target Class Profiling of Small Molecule Inhibitors of Methyltransferases
In experiment [1] the target is Glycine N-methyltransferase (Homo sapiens) (UniProt Q14749). As to conditions: purified enzyme, MTase-Glo SAH luminescence; measured here: GNMT inhibition; at 40 µM; stronger effect = lower value. A digest of the protocol: (§1)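 Each enzyme was assayed with SAM and its substrate. SAH formation detected by MTase-Glo luminescence; single-point 40 uM screen[…].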

The target of experiment [2] is Guanidinoacetate N-methyltransferase (Homo sapiens) (UniProt Q14353). As to conditions: purified enzyme, MTase-Glo SAH luminescence; measured here: GAMT inhibition; at 40 µM; stronger effect = lower value. A digest of the protocol: as §1
Experiment [3] concerns the target Histamine N-methyltransferase (Homo sapiens) (UniProt P50135). Conditions: purified enzyme, MTase-Glo SAH luminescence; measured here: HNMT inhibition; at 40 µM; stronger effect = lower value. In short, it runs like this:
as §1

Experiment [4] addresses Nicotinamide N-methyltransferase (Homo sapiens) (UniProt P40261). Conditions: purified enzyme, MTase-Glo SAH luminescence; measured here: NNMT inhibition; at 40 µM; stronger effect = lower value. A digest of the protocol:
as §1

Experiment [5] has as its target Phenylethanolamine N-methyltransferase (Homo sapiens) (UniProt P11086). As to conditions: purified enzyme, MTase-Glo SAH luminescence; measured here: PNMT inhibition; at 40 µM; stronger effect = lower value. A digest of the protocol: as §1
% is scaled to controls: 0 for no effect and ±100 for the full control effect.

Turning to `CCOC(=O)CNC(=O)C1(C)Cn2c(ccc2-c2ccco2)C(=O)N1Cc1cc(OC)ccc1OC` (configuration not stated), the activity change, negative = inhibition in experiment [1] is -5.63%; in experiment [2] it was 0%; in experiment [3], 0.3%; in experiment [4] it was -3.8%; in experiment [5] it was -0.743%.
Turning to `COc1ccc2c(c1)CCC1C2CC[C@@]2(C)C1CC[C@@H]2NCCCCCCN1C(=O)CCC1=O` (some centres not stated), the activity change, negative = inhibition in experiment [1] is 5.86%; in experiment [2] it was 14.2%; in experiment [3], 11.7%; in experiment [4], -2.84%; in experiment [5] it was 4.61%.
Take `CCCc1c(C(C)C)nc(C(C)C)c([C@@H](C)O)c1-c1ccc(F)cc1O`: the activity change, negative = inhibition is -0.55% in experiment [1]; -2.94% in experiment [2]; 3.38% in experiment [3]; -26.2% in experiment [4]; -3.24% in experiment [5].
Regarding `O=C(Cn1nc2n(Cc3ccccc3)c(=O)c3ccccc3n2c1=O)NCc1ccccc1Cl`, the activity change, negative = inhibition in experiment [1] was determined as 3.31%; in experiment [2] it was 0.893%; in experiment [3] it was 6.16%; in experiment [4] it was 0.755%; in experiment [5], 1.58%.
In the case of `COc1ccc(CN2C(=O)c3cc(-c4ccccc4)nn3CC2(C)C(=O)NCc2ccccc2OC)cc1` (configuration not stated), the activity change, negative = inhibition in experiment [1] was 0.128%; in experiment [2], -0.074%; in experiment [3] it was 4.96%; in experiment [4], -1.1%; in experiment [5], -15%.
For the molecule `O=C(NC1CN(c2ccnc3ccnn23)C1)c1ccc(Cl)nc1`, the activity change, negative = inhibition in experiment [1] was -26.3%; in experiment [2], -7.18%; in experiment [3], -4.74%; in experiment [4], -17.5%; in experiment [5], 6.97%.
Take `COCCCNC(=O)C1(C)Cn2nc(-c3ccccc3)cc2C(=O)N1c1ccc(C)c(Cl)c1` (configuration not stated): the activity change, negative = inhibition is 2.77% in experiment [1]; 2.2% in experiment [2]; 5.86% in experiment [3]; 4.19% in experiment [4]; -3.9% in experiment [5].
Turning to `COc1ccccc1N1CCN(C(=O)Cn2c(=O)n3nc(C)nc3c3ccccc32)CC1`, the activity change, negative = inhibition in experiment [1] is -0.093%; in experiment [2], 2%; in experiment [3], 0.644%; in experiment [4], -3.11%; in experiment [5] it was -5.65%.
For `COc1cccc(C(CC(=O)NCC(C)C)c2c[nH]c3ccccc23)c1` (configuration not stated), the activity change, negative = inhibition in experiment [1] was -1.45%; in experiment [2] it was -1.9%; in experiment [3], -1.15%; in experiment [4] it was -0.873%; in experiment [5] it was 4.44%.
For `CCCn1c(=O)c2cc(F)ccc2n2c(SCC(=O)Nc3ccccc3C)nnc12`, the activity change, negative = inhibition in experiment [1] is -4.11%; in experiment [2], 0.071%; in experiment [3] it was 8.08%; in experiment [4], -1.98%; in experiment [5], 5.37%.
As for `CN(C(=O)c1ccc(Cl)nc1)C1CCCc2ccccc21` (configuration not stated), the activity change, negative = inhibition in experiment [1] was -6.41%; in experiment [2] it was -8.35%; in experiment [3] it was -3%; in experiment [4], -23.7%; in experiment [5] it was -21.2%.
In the case of `CCOC(=O)C(CCc1ccccc1)NC(C)C(=O)N1Cc2ccccc2CC1C(=O)O` (configuration not stated), the activity change, negative = inhibition is -0.632% in experiment [1] and 9.77% in experiment [3].
For the molecule `Cc1ccc(Cl)cc1NC(=O)CSc1nnc2n(CCCOC(C)C)c(=O)c3ccccc3n12`, the activity change, negative = inhibition in experiment [1] was -6.26%; in experiment [2], -0.293%; in experiment [3], -0.885%; in experiment [4], -15.8%; in experiment [5], -4.7%.
As for `CCCN1C(=O)c2cc(C(=O)NCCN3CCCCC3)nn2CC1(C)C(=O)NC1CCCC1` (configuration not stated), the activity change, negative = inhibition was 5.7% in experiment [1]; 5.12% in experiment [2]; 8.72% in experiment [3]; 7.14% in experiment [4]; 5.28% in experiment [5].
For the molecule `COCCn1c(C)cnc1CCNC(=O)Cc1cccc(F)c1`, the activity change, negative = inhibition in experiment [1] is -1.47%; in experiment [2], -4.01%; in experiment [3] it was -11.9%; in experiment [4], -8.18%; in experiment [5], -7.1%.
`Cc1cc(C)n(-c2cccc(CN(C)C(=O)Cn3nnnc3CN3CCOCC3)c2)n1`: the activity change, negative = inhibition in experiment [1] was -7.23%; in experiment [2], -10.4%; in experiment [3], -3.96%; in experiment [4] it was -10.8%; in experiment [5] it was -4.56%.
For `COc1cc(C(=O)OCCCN2CCCN(CCCOC(=O)c3cc(OC)c(OC)c(OC)c3)CC2)cc(OC)c1OC`, the activity change, negative = inhibition is -0.378% in experiment [1]; 12% in experiment [2]; -16% in experiment [3]; -4.5% in experiment [4]; 6.33% in experiment [5].
As for `CCOc1ccc(NC(=O)N2Cc3c(sc4c3CCCC4)-n3cccc3C2c2cccc(F)c2)cc1` (configuration not stated), the activity change, negative = inhibition was 2.36% in experiment [1]; 0% in experiment [2]; 5.15% in experiment [3]; 1.35% in experiment [4]; 6.6% in experiment [5].
For `COC(=O)C1=C(C)NC(C)=C([N+](=O)[O-])C1c1ccccc1C(F)(F)F` (configuration not stated), in that order: 2.31%, 14.5%, 7.34%, -8.57% and 4.05%.
`COc1ccc(CCNC(=O)C(C)C2CCOCC2)cc1OC` (configuration not stated): the activity change, negative = inhibition was -1.75% in experiment [1]; -2.9% in experiment [2]; -1.83% in experiment [3]; -8.78% in experiment [4]; -2.83% in experiment [5].
For `O=C1NCCOCCN(C(=O)Nc2ccc3c(c2)OCCO3)[C@@H]2CCCC[C@H]12`, in that order: -2.83%, -4.88%, -2.15%, -3.93% and -0.23%.
For `CC(C)NC(=O)c1ccc2c(=O)n(C(C)C)c3nn(CC(=O)c4ccc(F)cc4)c(=O)n3c2c1`, in that order: 3.54%, 0%, 11.7%, -4.23% and 4.58%.
For `COc1ccc(CCN2C(=O)c3cc4occc4n3CC2(C)C(=O)NC2CCCCC2)c(OC)c1` (configuration not stated), the activity change, negative = inhibition is 3.95% in experiment [1]; 0.405% in experiment [2]; 8.8% in experiment [3]; -0.263% in experiment [4]; 6.36% in experiment [5].
For `OCC1OC(Oc2cc(O)cc(/C=C/c3ccc(OC4OC(CO)C(O)C(O)C4O)cc3O)c2)C(O)C(O)C1O` (configuration not stated), in that order: 0%, 0.842%, 4.3%, -9.05% and 4.58%.
Consider `Cc1ccc(CCN2C(=O)CSc3c(c4ccccc4n3C)C2C(=O)NCCCOC(C)C)cc1` (configuration not stated), for which the activity change, negative = inhibition in experiment [1] was -4.8%; in experiment [2], -2.75%; in experiment [3], 1.65%; in experiment [4], -5.55%; in experiment [5], -2.74%.
In the same order, the values of `CCCOCCc1nc2c([nH]1)CC(C)(C)CNC2=O` are -1.49%, -1.3%, 0.316%, -1.77% and -2.62%.
As for `COc1c(C)c(C(=O)c2ccc(N)c(C(=O)O)c2)n2ccccc12`, the activity change, negative = inhibition in experiment [1] was -6.02% and -9.56%; in experiment [2] it was -20.3% and -3.08%; in experiment [3], 3.37% and 6.56%; in experiment [4], -24% and -16.9%; in experiment [5] it was -4.44% and -4.95%.
As to `Cc1cccc(CN2C(=O)c3nc4ccccc4n3CC2(C)C(=O)NCc2ccccc2)c1` (configuration not stated), the activity change, negative = inhibition was 2.88% in experiment [1]; 0.426% in experiment [2]; 1.87% in experiment [3]; -1.49% in experiment [4]; 0.532% in experiment [5].
Turning to `COc1cccc(NC(=O)CN(C)S(=O)(=O)c2ccc3[nH]c4c(c3c2)CCCC4)c1`, the activity change, negative = inhibition in experiment [1] is -3.11%; in experiment [2], 0%; in experiment [3], -3.11%; in experiment [4] it was -4.26%; in experiment [5], -6.91%.
Turning to `COc1cccc(C(=O)Cn2nc3n(C(C)C)c(=O)c4ccc(C(=O)NCC(C)C)cc4n3c2=O)c1`, the activity change, negative = inhibition in experiment [1] was -5.48%; in experiment [2] it was 4.3%; in experiment [3], -0.84%; in experiment [4], 6.7%; in experiment [5], 2.95%.
With `C#CC(N)CCC(=O)O` (configuration not stated), the activity change, negative = inhibition in experiment [1] is -1.46%; in experiment [2], 10.3%; in experiment [3], 0.803%; in experiment [4] it was 1.06%; in experiment [5] it was 12.4%.
Consider `N[C@H](CCCP(=O)(O)O)C(=O)O`, for which the activity change, negative = inhibition was 3.88% in experiment [1]; 14.5% in experiment [2]; 10.3% in experiment [3]; -5.16% in experiment [4]; 1.81% in experiment [5].
As to `CS(=O)(=O)N1CCc2ccc(C(=O)NCc3ccc(OC(F)(F)F)cc3)cc21`, the activity change, negative = inhibition was -4.89% in experiment [1]; -1.29% in experiment [2]; -1.62% in experiment [3]; -2.13% in experiment [4]; -5.66% in experiment [5].
Consider `CC(NCc1cn(CCC(N)=O)c2ccccc12)c1ccccc1-n1cccn1` (configuration not stated), for which the activity change, negative = inhibition in experiment [1] was -2.32%; in experiment [2], 1.5%; in experiment [3], -24.3%; in experiment [4], -0.854%; in experiment [5], -0.166%.
Consider `Cc1ccc(-c2nnn3c2nc(N2CCC(C)CC2)c2ccccc23)cc1`, for which the activity change, negative = inhibition in experiment [1] was -1.14%; in experiment [2] it was 1.15%; in experiment [3], 4.84%; in experiment [4], -1.98%; in experiment [5], -0.992%.
For `O=S(=O)(c1ccc2[nH]c3c(c2c1)CCCC3)N1CCN(C2CCCCC2)CC1`, in that order: 2.26%, 4.4%, 0.57%, 5.71% and 4.79%.
For `CCOc1cccc(CN2CC(C(=O)NCc3ccncc3)C3(CCOCC3)C2)c1` (configuration not stated), in that order: -5%, -14.3%, -4.99%, -11.4% and -6.27%.
For `CN(C)CCN1C(=O)c2cc3occc3n2CC1(C)C(=O)NC1CCCCC1` (configuration not stated), in that order: 0.234%, 0%, -7.34%, 9.54% and 1.58%.
Consider `COC(=O)C(CC1(OC(=O)C(C)C)c2ccccc2N2C(=O)C(C)(C)N(O)C21)n1cnc2ccccc2c1=O` (configuration not stated), for which the activity change, negative = inhibition was -4.91% in experiment [1]; -5.54% in experiment [2]; 2.14% in experiment [3]; -18.1% in experiment [4]; -4.9% in experiment [5].
For `CC(C)CCNC(=O)C1(C)Cn2c(nc3ccccc32)C(=O)N1Cc1ccccc1Cl` (configuration not stated), in that order: -5.16%, 4.79%, 0.036%, -0.44% and 0.685%.
